Measurements: PubChem BioAssay (Tox21)
Values joined by “and” are separate entries in the source; they are usually repeats but may differ in a detail not shown here. Identical values can stand only once. The shares of active, inactive and inconclusive entries below differ from those in the screen. Where the call is inconclusive, the potency comes from a doubtful curve fit. Active and inactive are the calls of the source. The call rests on the fitted dose curve; in most records, active means well fitted inhibition curve with a large enough effect in the repeat runs; inconclusive means weak or mixed curves; inactive means flat fitted curve, though single readings scatter.

target: Voltage-gated inwardly rectifying potassium channel KCNH2 (Homo sapiens) (UniProt Q12809); assay: Human Ether-a-go-go-Related Gene (hERG) channel small molecule antagonists: fluorescence cell-based qHTS assay (AID 1671200); details: hERG-U2OS cells, FluxOR thallium flux fluorescence; series mostly up to 76.8 µM; further: nearly all actives have a fitted effect of over 50% in size
Sequence of UniProt Q12809 (Q12809 whole entry, looked up): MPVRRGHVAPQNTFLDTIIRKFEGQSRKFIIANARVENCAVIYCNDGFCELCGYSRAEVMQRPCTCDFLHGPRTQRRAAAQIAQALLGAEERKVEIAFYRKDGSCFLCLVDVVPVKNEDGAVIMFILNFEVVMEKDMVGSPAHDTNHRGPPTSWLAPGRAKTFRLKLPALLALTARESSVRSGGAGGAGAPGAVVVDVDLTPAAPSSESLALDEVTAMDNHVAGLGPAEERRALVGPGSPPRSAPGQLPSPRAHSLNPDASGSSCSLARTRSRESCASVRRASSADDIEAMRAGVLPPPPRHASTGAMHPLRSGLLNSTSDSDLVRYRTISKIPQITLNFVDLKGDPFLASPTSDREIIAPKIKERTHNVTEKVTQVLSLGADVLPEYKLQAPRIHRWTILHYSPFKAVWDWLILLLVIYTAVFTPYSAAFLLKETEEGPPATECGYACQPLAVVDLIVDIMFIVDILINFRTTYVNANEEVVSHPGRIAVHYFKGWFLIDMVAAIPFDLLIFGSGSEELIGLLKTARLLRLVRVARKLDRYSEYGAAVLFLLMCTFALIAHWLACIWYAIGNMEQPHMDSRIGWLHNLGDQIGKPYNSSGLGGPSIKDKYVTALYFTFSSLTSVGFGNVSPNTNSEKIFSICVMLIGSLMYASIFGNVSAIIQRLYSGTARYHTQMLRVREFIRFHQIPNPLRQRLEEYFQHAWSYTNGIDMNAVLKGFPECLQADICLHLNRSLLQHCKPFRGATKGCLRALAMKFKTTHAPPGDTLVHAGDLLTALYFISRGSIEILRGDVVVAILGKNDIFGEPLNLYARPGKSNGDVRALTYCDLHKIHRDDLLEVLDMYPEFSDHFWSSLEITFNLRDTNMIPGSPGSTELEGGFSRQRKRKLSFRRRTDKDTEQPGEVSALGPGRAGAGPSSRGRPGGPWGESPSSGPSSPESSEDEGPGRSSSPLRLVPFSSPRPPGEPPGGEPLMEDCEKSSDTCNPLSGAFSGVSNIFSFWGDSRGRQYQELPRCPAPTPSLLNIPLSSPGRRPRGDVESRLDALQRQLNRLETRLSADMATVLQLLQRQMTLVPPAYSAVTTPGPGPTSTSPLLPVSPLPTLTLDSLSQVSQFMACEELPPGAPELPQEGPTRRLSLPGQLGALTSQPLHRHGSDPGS
How it was run: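 Cell line hERG-U2OS; dye FluxOR II, 1 h RT dark; Tl+ stimulus; ex 480/em 540 nm, read each second for 2 min.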
Potency means the concentration at half of the fitted maximal effect; tags describe the fitted curve by direction and shape.

SMILES	Potency
C=CCN(CC=C)C(=O)C(Cl)Cl	inconclusive: 1.02 µM [inhibitor, single point]
N#CCCl	inconclusive: 51.1 µM [inhibitor, partial curve]
Cc1c([N+](=O)[O-])c(C)c([N+](=O)[O-])c(C(C)(C)C)c1[N+](=O)[O-]	inconclusive: 19.5 µM [inhibitor, full curve]
COP(=S)(OC)Oc1cc(Cl)c(Br)cc1Cl	inconclusive: 49 µM [inhibitor, partial curve, poor fit]
CCOCn1c(-c2ccc(Cl)cc2)c(C#N)c(Br)c1C(F)(F)F	inconclusive: 7.76 µM [inhibitor, full curve]
COC(=O)N(OC)c1ccccc1COc1ccn(-c2ccc(Cl)cc2)n1	inconclusive: 38.9 µM [inhibitor, partial curve, poor fit]
CC(=O)OC(c1ccccc1)C(Cl)(Cl)Cl (centres undefined)	inconclusive: 54.9 µM [inhibitor, single point]
Cc1ccc(N)cc1	inconclusive: 62 µM [inhibitor, partial curve, poor fit]
O=C(N[C@H](c1ccccc1)[C@@H]1CN2CCC1CC2)c1c(Cl)ccc(C(F)(F)F)c1Cl	active: 39.5 µM
CCCCN(CCCCO)N=O	inconclusive: 24.5 µM [inhibitor, partial curve]
c1ccc2c(c1)Nc1ccccc1S2	inconclusive: 21.9 µM [inhibitor, full curve]
O=S(=O)(c1ccc(Cl)cc1)c1ccc(Cl)cc1	active: 47.7 µM
CCCCC(CC)COP(=O)(Oc1ccccc1)Oc1ccccc1 (centres undefined)	inconclusive: 12.3 µM [inhibitor, full curve]
CC(C)(OOC(C)(C)c1ccccc1)c1ccccc1	inconclusive: 54.2 µM [inhibitor, partial curve]
c1ccc2c(c1)CCNC2	inconclusive: 63.2 µM [inhibitor, single point]
C[CH2][Hg][N]1C(=O)C2C(C1=O)C1(Cl)C(Cl)=C(Cl)C2(Cl)C1(Cl)Cl (centres undefined)	inconclusive: 10.4 µM [inhibitor]
OC(c1ccc(Cl)cc1)(c1cncnc1)c1ccccc1Cl (centres undefined)	active: 49.8 µM and active: 54.9 µM
CCCCOCC1CO1 (centres undefined)	inactive
CCCN(CCOc1c(Cl)cc(Cl)cc1Cl)C(=O)n1ccnc1	active: 12.6 µM and active: 19.5 µM
CCC(=O)C(CC(C)N(C)C)(c1ccccc1)c1ccccc1 (centres undefined)	inconclusive: 43.3 µM [inhibitor, partial curve] and inconclusive: 26.4 µM [inhibitor, partial curve]
C[Si](Cn1cncn1)(c1ccc(F)cc1)c1ccc(F)cc1	inconclusive: 43.6 µM [inhibitor, partial curve]
NCCc1ccc(O)cc1	inconclusive: 30.7 µM [inhibitor, partial curve]
CCCCN(CCCC)C(=S)S	inconclusive: 49 µM [inhibitor, partial curve, poor fit]
CCCCCCn1cc[n+](C)c1	inconclusive: 62 µM [inhibitor, partial curve, poor fit] and inconclusive: 44.6 µM [inhibitor, partial curve] and inconclusive: 54.1 µM [inhibitor, partial curve, poor fit]
